Results reported in PMC11809610, “Advanced multiparametric image spectroscopy and super-resolution microscopy reveal a minimal model of CD95 signal initiation” (Science Advances, 2024).

Target: the molecule itself
Experiment: FRET or BRET; CELFIS (FRET-FLIM, donor lifetime, x_FRET for each cell) in live HeLa CD95^KO cells with bicistronic mCherry/mEGFP plasmids; no ligand; evaluated from 30 up to 1000 receptors/μm^2; 37°C

B1: CTLA4 (cytotoxic T lymphocyte-associated protein 4) without the last 23 amino acids, fused C-terminally to mEGFP or mCherry (receptor)
chain: not shown
notes: also called CTLA4DA; dimer control; not shown: mEGFP (donor copy) or mCherry (acceptor copy), C-terminal, kept
stoichiometry N: 2
